These are yes or no findings as the source states them, for the method shown. Binding seen in cells or lysates may run through a third protein. Some binding calls cover weakened binding; strength is not graded here. For part of these data: Where a sequence is shown, tags or fusion partners need not be part of it.
Legend:
[1] = target: T1, A20-Flag (human TNFAIP3) expressed in Huh7 (human) (UniProt P21580); test: co-IP; Huh7 cells overexpressing the constructs, harvested at 48 h; same IP buffer and antibodies; western blot
T1 sequence: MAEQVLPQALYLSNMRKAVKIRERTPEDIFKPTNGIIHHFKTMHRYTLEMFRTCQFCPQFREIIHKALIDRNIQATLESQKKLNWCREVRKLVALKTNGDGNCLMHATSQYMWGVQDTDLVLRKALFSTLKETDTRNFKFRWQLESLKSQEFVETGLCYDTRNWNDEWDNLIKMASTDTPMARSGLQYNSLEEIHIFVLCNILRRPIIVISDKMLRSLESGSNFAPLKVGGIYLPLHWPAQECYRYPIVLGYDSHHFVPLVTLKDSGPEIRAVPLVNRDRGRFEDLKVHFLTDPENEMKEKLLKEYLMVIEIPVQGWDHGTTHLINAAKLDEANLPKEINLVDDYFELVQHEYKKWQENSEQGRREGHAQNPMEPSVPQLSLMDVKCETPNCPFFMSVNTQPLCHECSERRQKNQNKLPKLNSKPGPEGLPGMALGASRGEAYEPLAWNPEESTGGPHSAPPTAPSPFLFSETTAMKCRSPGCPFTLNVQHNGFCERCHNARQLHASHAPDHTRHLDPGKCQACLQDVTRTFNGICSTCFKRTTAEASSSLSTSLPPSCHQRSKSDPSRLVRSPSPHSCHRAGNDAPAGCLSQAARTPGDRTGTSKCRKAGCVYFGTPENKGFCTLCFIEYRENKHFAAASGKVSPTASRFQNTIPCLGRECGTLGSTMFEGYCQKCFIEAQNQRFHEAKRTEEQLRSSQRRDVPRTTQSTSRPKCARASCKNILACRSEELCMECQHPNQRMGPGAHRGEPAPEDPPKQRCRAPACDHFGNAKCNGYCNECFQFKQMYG

Sequences of proteins named here, by UniProt entry; tags and fusion partners are left off. A change or cut given only in a name is not applied to a line headed by its entry.
UniProt Q99683: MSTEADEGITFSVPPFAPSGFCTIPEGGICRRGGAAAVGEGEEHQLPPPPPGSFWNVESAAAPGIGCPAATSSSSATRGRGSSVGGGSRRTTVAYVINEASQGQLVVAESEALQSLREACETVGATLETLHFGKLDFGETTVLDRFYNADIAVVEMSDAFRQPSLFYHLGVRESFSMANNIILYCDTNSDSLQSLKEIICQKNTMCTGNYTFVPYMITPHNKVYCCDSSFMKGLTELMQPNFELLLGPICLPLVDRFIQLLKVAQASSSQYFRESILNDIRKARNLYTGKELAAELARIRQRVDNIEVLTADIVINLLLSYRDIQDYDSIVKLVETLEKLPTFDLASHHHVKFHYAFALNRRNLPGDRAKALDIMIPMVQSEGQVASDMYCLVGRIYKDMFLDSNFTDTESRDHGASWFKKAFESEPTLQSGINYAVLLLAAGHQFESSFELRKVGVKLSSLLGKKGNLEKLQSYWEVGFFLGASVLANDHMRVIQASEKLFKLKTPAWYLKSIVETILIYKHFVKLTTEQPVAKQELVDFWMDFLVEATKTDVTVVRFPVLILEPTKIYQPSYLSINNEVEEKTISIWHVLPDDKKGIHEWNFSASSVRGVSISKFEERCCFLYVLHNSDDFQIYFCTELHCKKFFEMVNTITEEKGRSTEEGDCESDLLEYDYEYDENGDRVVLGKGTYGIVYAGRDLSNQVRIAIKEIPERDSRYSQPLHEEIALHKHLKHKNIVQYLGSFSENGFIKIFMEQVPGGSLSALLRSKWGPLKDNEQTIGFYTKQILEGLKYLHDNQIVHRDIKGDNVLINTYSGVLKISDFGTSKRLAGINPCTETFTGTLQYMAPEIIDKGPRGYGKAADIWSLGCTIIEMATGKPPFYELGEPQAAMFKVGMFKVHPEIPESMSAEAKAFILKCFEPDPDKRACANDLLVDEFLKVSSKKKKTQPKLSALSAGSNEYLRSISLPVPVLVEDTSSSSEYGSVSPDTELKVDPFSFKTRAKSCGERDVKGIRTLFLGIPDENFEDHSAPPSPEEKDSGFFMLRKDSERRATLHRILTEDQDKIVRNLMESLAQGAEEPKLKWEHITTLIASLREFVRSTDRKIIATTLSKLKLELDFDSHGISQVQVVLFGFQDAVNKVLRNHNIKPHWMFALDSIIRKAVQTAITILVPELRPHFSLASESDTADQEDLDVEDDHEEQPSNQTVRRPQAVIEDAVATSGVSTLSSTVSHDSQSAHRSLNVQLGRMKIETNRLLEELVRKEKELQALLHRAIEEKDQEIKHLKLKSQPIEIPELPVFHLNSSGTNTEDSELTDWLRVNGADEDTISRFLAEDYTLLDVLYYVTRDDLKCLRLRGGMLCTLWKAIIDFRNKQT
UniProt Q13546: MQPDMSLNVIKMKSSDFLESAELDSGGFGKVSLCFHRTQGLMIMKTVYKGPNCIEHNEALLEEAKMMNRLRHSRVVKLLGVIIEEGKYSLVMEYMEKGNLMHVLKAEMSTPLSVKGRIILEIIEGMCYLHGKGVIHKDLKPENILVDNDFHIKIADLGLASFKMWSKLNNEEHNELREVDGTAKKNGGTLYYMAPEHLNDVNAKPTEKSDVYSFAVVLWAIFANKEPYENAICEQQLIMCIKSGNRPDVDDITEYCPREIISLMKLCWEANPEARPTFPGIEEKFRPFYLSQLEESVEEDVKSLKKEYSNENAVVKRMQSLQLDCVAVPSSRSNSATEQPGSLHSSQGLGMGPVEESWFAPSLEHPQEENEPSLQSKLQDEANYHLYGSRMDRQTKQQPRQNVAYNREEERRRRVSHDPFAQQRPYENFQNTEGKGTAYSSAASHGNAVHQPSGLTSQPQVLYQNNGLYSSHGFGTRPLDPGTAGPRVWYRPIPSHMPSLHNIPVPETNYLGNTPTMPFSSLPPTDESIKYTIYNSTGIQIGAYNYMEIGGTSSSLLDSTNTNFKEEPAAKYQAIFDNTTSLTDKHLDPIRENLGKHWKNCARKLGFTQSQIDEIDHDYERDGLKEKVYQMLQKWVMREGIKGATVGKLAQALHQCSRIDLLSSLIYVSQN

[2] = target: ASK1-Flag (human apoptosis signal-regulating kinase 1, pCMV-hAsk1-Flag) (human) (UniProt Q99683); test: co-IP; HEK293T cells cotransfected with GFP-A20 and ASK1-Flag together with HA-RIPK1 or control vector for 24 h; IP with GFP tag or Flag tag antibody or isotype-matched IgG; blots for ASK1, A20 and RIPK1
[3] = target: T2, GFP-A20 (human TNFAIP3, pEGFP1-C1-hA20) (human) (UniProt P21580); test: as above
T2 sequence: T1 sequence

[4] = target: T3, A20-Flag (human TNFAIP3, pCMV-hA20-Flag) (human) (UniProt P21580); test: co-IP; HEK293T cells cotransfected with two tagged proteins, harvested at 24 h; IP buffer 20 mM Tris pH 7.5, 150 mM NaCl, 5 mM EDTA, 0.5% Triton; IP overnight at 4 °C with anti-Flag-M2 agarose, anti-HA or anti-GFP antibody, isotype-matched IgG as control; western blot
T3 sequence: T1 sequence

**Q.** Which binding [1] does the source give for “HA-RIPK1 (human RIPK1) expressed in Huh7 (from UniProt Q13546 1-671)” here?
**A.** binds

**Q.** With “HA-RIPK1 (human receptor interacting protein kinase-1, 3HA-pCDNA3.3-hRIPK1) (from UniProt Q13546 1-671)” as the substance, how does the binding [2] read?
**A.** no binding

**Q.** And the binding [3]?
**A.** binds

**Q.** And the binding [4]?
**A.** binds

**Q.** With “HA-RIPK1^D138N (kinase dead human RIPK1) (from UniProt Q13546 1-671)” as the substance, how does the binding [4] read?
**A.** binds

**Q.** Which binding [1] does the source give for “HA-RIPK1^D138N (kinase dead human RIPK1) expressed in Huh7 (from UniProt Q13546 1-671)” here?
**A.** binds

Source: PMC7948960
